Laboratory results as given in paper PMC5709738 (The EMBO Journal, 2017).
No constants are given. Whether binding was seen depends on the method and setting. Some entries that bind do so weakly or less than the wild type. For some assays here: Tags and fused reporters may be left off the sequences shown. Values belong to the binder of their own block, whether it stands above or below them.

Columns and labels:
[1] = target: T1, full-length Ctf19-Mcm21 (K. lactis) (Kluyveromyces lactis) (UniProt Q6CRN7+Q6CVQ9); test: AUC; sedimentation equilibrium; COMA at ~3-8 uM (for COMA monomer); monomer to dimer; both purified
T1 sequence 1: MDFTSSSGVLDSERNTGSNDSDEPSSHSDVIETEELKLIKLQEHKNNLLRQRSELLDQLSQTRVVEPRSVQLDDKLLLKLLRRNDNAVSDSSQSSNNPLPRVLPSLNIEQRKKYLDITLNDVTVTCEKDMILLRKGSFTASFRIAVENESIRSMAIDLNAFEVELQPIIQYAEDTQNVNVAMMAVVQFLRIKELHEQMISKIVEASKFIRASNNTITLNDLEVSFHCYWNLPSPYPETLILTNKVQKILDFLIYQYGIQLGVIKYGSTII
T1 sequence 2: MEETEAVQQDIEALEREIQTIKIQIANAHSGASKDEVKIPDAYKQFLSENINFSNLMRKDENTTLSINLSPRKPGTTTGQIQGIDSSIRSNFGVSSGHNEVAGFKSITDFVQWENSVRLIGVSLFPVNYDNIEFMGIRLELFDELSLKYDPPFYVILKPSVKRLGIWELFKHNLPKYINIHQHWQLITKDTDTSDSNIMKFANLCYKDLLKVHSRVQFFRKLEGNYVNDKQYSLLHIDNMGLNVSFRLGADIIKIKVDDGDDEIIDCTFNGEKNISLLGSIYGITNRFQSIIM

[2] = target: T2, Ctf19_D-RWD-Mcm21_D-RWD (K. lactis, purified) (Kluyveromyces lactis) (UniProt Q6CRN7+Q6CVQ9); test: HDX-MS; purified assemblies in D2O buffer, quenched at pH ~2.5, pepsin column; exchange patterns compared between assemblies; both purified
T2 sequence 1: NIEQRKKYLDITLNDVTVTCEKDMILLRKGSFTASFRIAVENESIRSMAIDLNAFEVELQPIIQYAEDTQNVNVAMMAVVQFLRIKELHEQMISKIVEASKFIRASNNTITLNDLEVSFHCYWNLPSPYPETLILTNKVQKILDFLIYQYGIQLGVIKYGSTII
T2 sequence 2: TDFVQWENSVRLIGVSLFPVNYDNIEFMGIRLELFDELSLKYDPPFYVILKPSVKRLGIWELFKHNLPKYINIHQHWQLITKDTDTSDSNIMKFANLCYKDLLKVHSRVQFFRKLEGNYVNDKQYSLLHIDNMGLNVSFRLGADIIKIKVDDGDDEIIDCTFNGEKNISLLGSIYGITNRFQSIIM

[3] = target: T2, Ctf19_D-RWD-Mcm21_D-RWD (K. lactis, purified) (Kluyveromyces lactis); test: SEC; analytical SEC of purified K. lactis samples alone and combined, Superdex 200 10/300, 4°C; fractions on SDS-PAGE; both purified
[4] = target: T1, full-length Ctf19-Mcm21 (K. lactis) (Kluyveromyces lactis); test: as above
[5] = target: T3, Ctf19_D-RWD-Mcm21_D-RWD-Okp1_229-336 (K. lactis) (Kluyveromyces lactis) (UniProt Q6CRN7+Q6CVQ9+Q6CJY0); test: as above
T3 sequence 1: T2 sequence 1
T3 sequence 2: T2 sequence 2
T3 sequence 3: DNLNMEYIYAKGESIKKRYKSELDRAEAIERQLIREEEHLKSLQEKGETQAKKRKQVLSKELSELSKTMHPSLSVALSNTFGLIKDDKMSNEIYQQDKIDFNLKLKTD

[6] = target: T4, Okp1_123-336 (K. lactis) (Kluyveromyces lactis) (UniProt Q6CJY0); test: HDX-MS; purified assemblies in D2O buffer, quenched at pH ~2.5, pepsin column; exchange patterns compared between assemblies; both purified
T4 sequence: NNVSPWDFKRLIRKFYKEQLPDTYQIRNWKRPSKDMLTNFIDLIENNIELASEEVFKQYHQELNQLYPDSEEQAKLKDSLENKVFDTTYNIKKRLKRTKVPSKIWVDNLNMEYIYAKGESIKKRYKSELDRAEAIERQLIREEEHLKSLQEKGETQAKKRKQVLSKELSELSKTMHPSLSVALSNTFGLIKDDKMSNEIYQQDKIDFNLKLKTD

[7] = target: T5, Mcm21 D-RWD domain (K. lactis Mcm21 residues 108-293) (Kluyveromyces lactis) (UniProt Q6CVQ9); test: crystal structure; Ctf19_107-270-Mcm21_108-293-Okp1_295-360; 35% (v/v) glycerol ethoxylate, 200 mM Li-citrate, 20°C; space group P22(1)2(1); 2.1 Å; both purified
T5 sequence: T2 sequence 2

[8] = target: Okp1_295-360 (K. lactis) (Kluyveromyces lactis) (UniProt Q6CJY0); test: as above
[9] = target: T6, Ctf19 D-RWD domain (K. lactis Ctf19 residues 107-270) (Kluyveromyces lactis) (UniProt Q6CRN7); test: as above
T6 sequence: T2 sequence 1

[10] = target: T2, Ctf19_D-RWD-Mcm21_D-RWD (K. lactis, purified) (Kluyveromyces lactis); test: as above
[11] = target: T1, full-length Ctf19-Mcm21 (K. lactis) (Kluyveromyces lactis); test: MST; Ctf19-Mcm21 labelled with NT-647-NHS on lysines, ~27 nM; dilution series of peptide; 22-25°C; ITC/MST buffer; three dilution series; both purified

- binding [1]: no binding
B1: full-length Ctf19-Mcm21 (K. lactis) (complex, UniProt Q6CRN7 1-270; Q6CVQ9 1-293)
chain 1: T1 sequence 1
chain 2: T1 sequence 2

- binding [2]: binds
- binding [3]: binds
B2: Okp1_229-336 (K. lactis) (domain or fragment, UniProt Q6CJY0 229-336)
chain: T3 sequence 3

B3: Nkp1-Nkp2 heterodimer (K. lactis) (complex, Kluyveromyces lactis)
chain 1: MDLESEIIQLVRQNIRPKFPSLNDEQQARLDNALKYDVNYDILKKELVEYIDDWKRNEYYDVLTNIGDLQRLDLGNMLNGDGVSFPKLHSDLANLPRFRLIDNENEMDQSLLHKYDSLRTRLIEKCRAIELIRSATNTDVNYQDINSMLSVVELRQWRDEIQMEWKELAQNLELILKTWPDLTEEKRSKLLQLIDSSSLKSILHIKDNIE
chain 2: MLHEVLYKHLDGILVSRLYTEDQFVDLFSRTIPESNTVIASQLYKSYEENDQRIIEKIDKLIDNKLSLIRVELEREQIEDSISLEEVNKLLHSIDDMLQQHLNQLNIELDNKNTKLLKYAMELSDIEAIDTSMYDNVAKLITDMETNQPSS
notes: Nkp1 of Kluyveromyces lactis; Nkp2 of Kluyveromyces lactis; also called NN; source: E. coli BL21 Rosetta 2(DE3)pLysS, purified
- binding [4]: no binding
- binding [5]: no binding

- binding [6]: binds
B4: Ame1_1-260 (K. lactis) (domain or fragment, UniProt Q6CUE5 1-260)
chain: MDALKQRHLKLLYRQRGSASRTIDYDVVIEPELREDGDLVTDSQLTEQDDQSFPDIQVPSPDRVDDFDLNQGDGLMDKATANEDDIDHVIGDEVAAVNAPVETSDLVIDTTQFDSMTLSQLSTPLTSMATIDVLRRLLETVILVTIEERTSQFNRAGSARLRLKLKLEIKILTWFLHQSKEDLITISELNLSNNDLLYRLKQISLLKNSLSRSLLDVRSAISSYEGPNNALSEEQVALQNFKRINELILSQRIDTIINNN

- binding [7]: binds
- binding [8]: no binding
- binding [9]: binds
- binding [10]: binds
B5: Okp1_295-360 (K. lactis) (domain or fragment, UniProt Q6CJY0 295-360)
chain: KTMHPSLSVALSNTFGLIKDDKMSNEIYQQDKIDFNLKLKTDFSKPLISEKEENSLNGLTNAMDNN

- binding [11]: no binding
Binder: SNEIYQQDKIDFALPLKTDF (peptide, UniProt Q6CJY0 318-337) [Okp1 peptide variant N330A-K332P]
